Consider two substances from US11155596B2, “Polypeptide” (AFFIBODY AB, priority 2016, dated 2021).

Assay [1] relates to PD-L1 expressing THP-1 cells (IFNγ stimulated). In words: Cell binding analysis by FACS, THP-1 cells. Type of assay: cell-based. The note with it: IFNγ stimulated THP-1 cells; 10 μg/ml His6-tagged Z variant (antibody 1 μg/ml); normalized against Z13091. The method, then:
Cell binding analysis by FACS: The potential of Z variants to bind PD-L1 expressing cells was investigated using Fluorescence Activated Cell Sorting (FACS). THP-1 cells, cultivated in RPMI (Lonza, cat. no. BE12-702F) containing 10% FBS were stimulated with 10 ng/ml IFNg (R&D Systems, cat. no. 285-IF-100) overnight which results in up-regulation of PD-L1. 150,000 stimulated and unstimulated cells were pipetted per well of a v-bottomed 96 well plate (Nunc, cat. no. 277143) and the cells in the plate were subsequently pelleted at 400 g for 3 min at RT. The supernatants were removed and the cells were resuspended in 100 μl PBS plus 2.5% FBS (staining buffer) containing 10 μg/ml of the different His-tagged Z variants. […] Cells incubated with buffer alone were used as negative controls. The cells were incubated for 1 h at 8° C. in the dark, washed twice with 100 μl staining buffer and resuspended in 100 μl of staining buffer containing a goat anti-Z antibody (produced in house) at a concentration of 5 μg/ml. Cells stained with the positive control were treated with buffer only. The cells were incubated for 1 h at 8° C. in the dark, washed twice with 100 μl staining buffer and resuspended in 100 μl of staining buffer containing an Alexa Fluor 647 chicken anti-goat IgG antibody (Life technologies, cat. no. A21469) or an Alexa Fluor 647 goat anti-mouse IgG antibody (Life technologies cat. no. A21236). The cells were once again incubated for 1 h at 8° C. in the dark, washed twice with 100 μl staining buffer and resuspended in 200 μl of staining buffer. Data from 10,000 cells were obtained using a FACS Calibur ([…]) and the data was analyzed using Flowing software 2.5.0 (Turku University). Mean fluorescence intensity (MFI) was used as a read out of binding capacity.

Assay [2] concerns the target T1, hPD-L2 (Homo sapiens, UniProt Q9BQ51).
T1 construct: Fc (IgG Fc fusion partner); purchased R&D Systems 1224-PL-100
T1 sequence (Q9BQ51 20-219 limits assumed): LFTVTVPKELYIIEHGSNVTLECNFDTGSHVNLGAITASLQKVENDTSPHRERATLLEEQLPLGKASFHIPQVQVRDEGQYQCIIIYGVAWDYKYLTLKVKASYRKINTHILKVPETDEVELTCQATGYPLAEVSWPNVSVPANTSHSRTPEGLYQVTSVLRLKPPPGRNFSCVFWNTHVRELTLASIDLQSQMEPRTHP
In words: Biacore specificity analysis of primary Z variants, hPD-L2. Type of assay: binding. The note with it: Z variant concentrations up to 50 nM. On the procedure:
(§1) Biacore kinetic and specificity analysis: Kinetic constants (ka and kd) and affinities (KD) for hPD-L1 were determined for 14 Hiss-tagged Z variants using a Biacore 2000 instrument (GE Healthcare). Some of the Z variants were also tested for binding against the sequence-related proteins hPD-L2, hB7-H3, hB7-H4 and mPD-L1 (mouse PD-L1 Fc Chimera, R&D Systems, cat. no. 1019-B7).
(§2) hPD-L1, hPD-L2, hB7-H3, hB7-H4 and mPD-L1 were immobilized in separate flow cells on the carboxylated dextran layer of different CM5 chip surfaces (GE Healthcare, cat. no. BR100012). The immobilization was performed using amine coupling chemistry according to the manufacturer's protocol and using HBS-EP as running buffer (0.01 M HEPES pH 7.4, 0.15 M NaCl, 3 mM EDTA, 0.005% v/v Surfactant P20, GE Healthcare, cat. no. BR100188). The ligand immobilization levels on the surfaces were 468-894 RU for hPD-L1, 537-742 RU for hPD-L2, 383 RU for hB7-H3, 538-659 RU for hB7-H4 and 482 RU for mPD-L1. One flow cell surface on each chip was activated and deactivated for use as blank during analyte injections. In the kinetic experiment, HBS-EP was used as running buffer and the flow rate was 50 μl/min. […] Kinetic constants were calculated from the sensorgrams using the Langmuir 1:1 model of BiaEvaluation software 4.1 (GE Healthcare).

Assay [3] has as its target T2, hPD-L1 binding to hPD-1 (Homo sapiens, UniProt Q9NZQ7).
T2 construct: 1086-PD-050 (hPD-1)
Put plainly: AlphaLISA blocking assay (Example 3). The note with it: His6-tagged Z variants 250 nM to 12 pM; 10 nM biotinylated hPD-L1; read-out: IC50 (M), inhibiting binding of PD-L1 to PD-1. The method, then:
AlphaLISA blocking assay: The potential of Z variants to inhibit binding of PD-L1 to PD-1 was analyzed by AlphaLISA and recordings in an EnSpire multiplate reader 2300 (Perkin Elmer). hPD-1 (human PD-1 Fc-chimera; R&D Systems, cat. no. 1086-PD-050) was immobilized on AlphaLISA Acceptor beads (Perkin Elmer, cat. no. 6772002) according to the manufacturer's recommendations. Stepwise serial dilutions 1:3 of Hiss-tagged Z variants to final concentrations of 250 nM to 12 pM were made in a 384 plate (Perkin Elmer, cat. no. 6005350) and incubated for 1 h with 10 nM biotinylated hPD-L1 in AlphaLISA buffer (Perkin Elmer, cat. no. AL000F). hPD-1-coated Acceptor beads were added to a final concentration of 10 μg/ml and incubated for 1 h. Finally, streptavidin coated Donor beads (Perkin Elmer, cat. no. 6772002) were added to a final concentration of 40 μg/ml and incubated for 30 min. All incubations were performed at RT in the dark. The plate was analyzed in the EnSpire instrument and the IC50 values were calculated using GraphPad Prism 5.

Assay [4] deals with T3, hB7-H3 (Homo sapiens, UniProt Q5ZPR3).
T3 construct: Fc (IgG Fc fusion partner); purchased R&D Systems 1027-B3-100
T3 sequence (Q5ZPR3 29-316 isoform Q5ZPR3-2 limits assumed): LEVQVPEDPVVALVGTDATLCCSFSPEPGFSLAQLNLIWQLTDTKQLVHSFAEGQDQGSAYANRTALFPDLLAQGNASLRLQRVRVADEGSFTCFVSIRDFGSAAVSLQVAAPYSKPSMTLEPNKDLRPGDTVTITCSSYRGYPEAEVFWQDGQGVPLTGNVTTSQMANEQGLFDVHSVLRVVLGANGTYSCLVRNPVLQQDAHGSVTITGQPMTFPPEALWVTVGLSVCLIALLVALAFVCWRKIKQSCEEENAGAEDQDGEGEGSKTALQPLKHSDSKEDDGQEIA
In words: Biacore specificity analysis of primary Z variants, hB7-H3. In kind it is binding. The note with it: Z variant concentrations up to 50 nM. The method, then:
as §1, §2
For orientation: In SPR one partner is held on a chip, and binding of the other changes the refractive index at the surface.

T2 sequence (Q9NZQ7 19-239 limits assumed): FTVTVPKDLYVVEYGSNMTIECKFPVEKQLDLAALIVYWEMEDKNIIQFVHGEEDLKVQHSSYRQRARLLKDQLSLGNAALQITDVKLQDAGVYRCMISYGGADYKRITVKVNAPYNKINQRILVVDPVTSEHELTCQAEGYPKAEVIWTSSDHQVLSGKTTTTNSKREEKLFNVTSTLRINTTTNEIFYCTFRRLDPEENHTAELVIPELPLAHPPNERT

For “Z13091: primary PD-L1 binding Z variant (VDAKYAKERNNAAFEILRLPNLTNGQHWAFIWKLADDPSQSSELLSEAKKLNDSQAPK; Engineered PD-L1 binding polypeptide)”, in assay [1], the “MFI (normalized)” value was 1.00. The “SPR binding against hPD-L2” value in assay [2] is listed as “absence of SPR response”. In addition, in assay [3], the half-inhibitory concentration (IC50) stood at 6.9e-09 M. Besides, in assay [4], the “SPR binding against hB7-H3” value is listed as “absence of SPR response”.
Turning to “Z13156: primary PD-L1 binding Z variant (VDAKYAKERNQAAVEILQLPNLTAAQYWAFIWKLDDDPSQSSELLSEAKKLNDSQAPK; Engineered PD-L1 binding polypeptide)”, in assay [1], the “MFI (normalized)” value was determined as 1.09. In addition, the “SPR binding against hPD-L2” value in assay [2] is given as “absence of SPR response”. Further, the concentration for half-maximal inhibition (IC50) in assay [3] stood at 1.4e-09 M. Besides, in assay [4], the “SPR binding against hB7-H3” value is given as “absence of SPR response”.

The IC50 is the midpoint of a concentration-inhibition curve.
